Measured values published in PMC4336329 (PLoS ONE, 2015).
Hit rate of the full screen: of about 310,000 compounds, about 14,000 (4.5%) showed an effect of 50% or more. The effect is printed as a negative number. The list shows a part of the results.

biological target: human ether-à-go-go-related gene (hERG) potassium channel (human, UniProt Q12809); test: primary screen, population patch clamp on CHO cells stably expressing hERG
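Further: peak tail current of the secondary pulse compared with the same well before compound.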

Chain of human ether-à-go-go-related gene (hERG) potassium channel (Q12809 whole entry, looked up): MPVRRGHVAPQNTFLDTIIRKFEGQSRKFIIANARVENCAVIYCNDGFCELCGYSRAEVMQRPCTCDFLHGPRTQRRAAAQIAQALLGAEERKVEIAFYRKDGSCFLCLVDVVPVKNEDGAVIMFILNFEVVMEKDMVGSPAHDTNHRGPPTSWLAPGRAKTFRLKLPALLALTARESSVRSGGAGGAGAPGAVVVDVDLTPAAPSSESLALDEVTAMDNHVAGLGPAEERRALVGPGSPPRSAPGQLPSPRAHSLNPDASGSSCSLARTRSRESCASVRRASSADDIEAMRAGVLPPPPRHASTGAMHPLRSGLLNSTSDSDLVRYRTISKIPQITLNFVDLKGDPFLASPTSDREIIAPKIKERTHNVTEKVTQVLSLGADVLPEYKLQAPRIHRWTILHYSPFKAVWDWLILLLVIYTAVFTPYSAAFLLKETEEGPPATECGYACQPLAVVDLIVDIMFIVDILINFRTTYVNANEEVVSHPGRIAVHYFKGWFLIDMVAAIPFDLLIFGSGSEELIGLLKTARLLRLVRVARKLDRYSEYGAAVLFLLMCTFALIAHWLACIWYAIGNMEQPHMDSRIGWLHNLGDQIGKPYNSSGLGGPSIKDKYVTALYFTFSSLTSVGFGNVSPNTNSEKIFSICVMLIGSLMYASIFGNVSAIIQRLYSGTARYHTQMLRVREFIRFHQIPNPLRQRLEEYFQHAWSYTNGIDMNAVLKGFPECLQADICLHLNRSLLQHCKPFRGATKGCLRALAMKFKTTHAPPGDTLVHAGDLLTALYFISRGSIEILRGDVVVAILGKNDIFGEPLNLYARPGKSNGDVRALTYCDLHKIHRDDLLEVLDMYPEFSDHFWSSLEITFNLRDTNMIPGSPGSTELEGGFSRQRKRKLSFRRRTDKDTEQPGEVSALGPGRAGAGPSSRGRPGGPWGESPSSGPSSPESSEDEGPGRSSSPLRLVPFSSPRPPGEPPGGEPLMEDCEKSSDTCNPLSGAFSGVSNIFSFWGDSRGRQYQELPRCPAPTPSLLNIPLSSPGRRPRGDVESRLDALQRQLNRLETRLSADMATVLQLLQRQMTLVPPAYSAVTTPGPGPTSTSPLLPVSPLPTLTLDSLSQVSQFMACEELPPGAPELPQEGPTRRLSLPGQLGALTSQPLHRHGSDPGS

SMILES | hERG current change (%, negative = inhibition) at 10uM [%]
COc1cccc(/C=C/C(=O)OCC(=O)Nc2cccc(S(=O)(=O)N(C)C)c2)c1 | -3.82
Cc1ccc(S(=O)(=O)N(C)C)cc1NC(=O)C1CCCCC1 | -1.12
CCOc1ccc(-c2nc(C#N)c(N3CCOCC3)o2)cc1 | 1.6
CCn1c(COc2cccc3cccnc23)nnc1SCC(=O)OC | 16.8
CCNC(=S)NNC(=O)c1cccn(Cc2ccc(Cl)cc2)c1=O | -9.11
O=C(OCC(=O)N1CCN(Cc2ccccc2)CC1)c1ccc(Cl)cc1 | -42.8
CC(=O)C1=C(O)C(=O)N(c2nccs2)C1c1ccc(Br)cc1 (centres unmarked) | 11.9
O=C(Cn1c(=O)[nH]c2ccsc2c1=O)NC1CCCCCC1 | -11.9
Cc1oc2c(c1C(=O)O)C(=O)c1ccccc1C2=O | -5.98
Cc1ccc(OCc2cc(C(=O)NCC3COCCO3)no2)cc1C (centres unmarked) | -10
Cl.O=C(NCC(c1cccs1)N1CCOCC1)c1ccccc1NS(=O)(=O)c1ccc(Cl)cc1 (centres unmarked) | 16.8
Cn1c(SCc2nc3ccccc3c(=O)[nH]2)nc2ccccc21 | 0.933
Cc1ccc(N2C(=O)N(CC(=O)Nc3ccccc3C(F)(F)F)C(=O)C2C)cc1 (centres unmarked) | -12.4
CCCc1nnc(NC(=O)CCC(=O)NC2CC2)s1 | 8.48
CC(=O)Nc1ccc(S(=O)(=O)N2CCN=C2SCc2ccccc2C)cc1 | 0.41
CC(=O)c1cnc2cc(-c3cccc(Br)c3)nn2c1C | 4.11
COc1cc(S(=O)(=O)NCc2cccnc2)c(OC)cc1Br | 33.9
Cc1cc2n(n1)C(c1ccccc1)Nc1ccccc1-2 (centres unmarked) | 2.95
O=C(c1cccc(Cl)c1)N1CCC(N2CCC(C(=O)N3CCOCC3)CC2)CC1 | -18.6
Cc1nn(Cc2c(Cl)cccc2Cl)c(C)c1NC(=O)Cn1nc([N+](=O)[O-])c(Cl)c1C | -0.751
NNC(=O)CNC(c1ccccc1)c1cc(Br)ccc1N (centres unmarked) | -17.6
C=CCNC(=O)NC(=O)COC(=O)c1ccccc1Sc1ccc(C(F)(F)F)cc1[N+](=O)[O-] | 17.6
CC1(C)CC(=O)c2c(O)cc(OCC(=O)NCCc3ccc(S(N)(=O)=O)cc3)cc2O1 | -29.9

SMILES | hERG current change (%, negative = inhibition) at 10uM [%]
COc1cccc2cc(C(=O)NC(C)c3ccccc3)c(=O)oc12 (centres unmarked) | 16.3
CCS(=O)(=O)c1ccc(-c2csc(-c3ccc(Cl)cc3)n2)c(Cl)c1Cl | 13.8
O=c1ccc(-c2ccccc2)nn1Cc1ccccc1 | 0.0976
O=C(NC(=S)Nc1ccc(S(=O)(=O)Nc2nccs2)cc1)c1ccccc1 | 15.2
Cc1nnc(SCC(=O)N2CCN(S(=O)(=O)c3ccc(Cl)cc3)CC2)[nH]c1=O | 15
CCOc1ccc(N2CC(C(=O)Nc3ccccc3N3CCOCC3)CC2=O)cc1 (centres unmarked) | -14.4
CC(=O)Nc1ccc(S(=O)(=O)NCCc2csc(C)n2)cc1 | -12.6
CC1(C)CC(=O)C=C(NCCN2CCN(C(=O)Nc3ccc(Cl)c(Cl)c3)CC2)C1 | -24
CCOc1ccccc1-c1nc(CN2CCCC2c2nccs2)c(C)o1 (centres unmarked) | -2.48
C=CCSc1nc(N)c2c(C)c(C)sc2n1 | -24.1
Cc1ccc(CNC(=O)Cc2cn(C)c3ccccc23)cc1 | 16.5
Cc1cc2ncc(C(=O)N=CN(C)C)cn2n1 | -7.59
CCOc1ccc(OCCSc2nc(-c3ccccc3)cc(=O)[nH]2)cc1 | 19.2
Cc1ccc(S(=O)(=O)NC(=O)Nc2c(C)cccc2C)cc1 | 13.5
CC12CN(S(=O)(=O)c3ccccc3)CC(C)(CN(S(=O)(=O)c3ccccc3)C1)C2 | -11.5
O=C(Nc1c2c(nc3ccccc13)CCCC2)c1cccc([N+](=O)[O-])c1 | -5.85
CCC(C)c1ccc(S(=O)(=O)N2CCN(c3ccccn3)CC2)cc1 (centres unmarked) | 24.6
O=C(COC(=O)CNS(=O)(=O)c1ccc(F)c(F)c1F)NC1CCCC1 | 4.16
COc1ccc(OCCOCCN2CCOCC2)cc1 | 5.25
O=C(CN1CCNC(=O)C1)NCCc1ccc(Cl)cc1Cl | 1.45
COc1ccc(-c2ccc(SCC(=O)NCc3ccco3)nn2)cc1 | -8.73
CCC1CCCCN1C(=O)CSc1nc(N)cc(=O)[nH]1 (centres unmarked) | 11.7
CC1(C)CC(=O)C=C(Nc2ccc(F)cc2F)C1 | -3.73

SMILES | hERG current change (%, negative = inhibition) at 10uM [%]
CC(=O)Nc1ccc(NC(=O)c2ccc(Cn3cc(Cl)cn3)cc2)cc1 | -1.45
Cc1cccc(OCCC(=O)NCC(c2ccccc2)N(C)C)c1 (centres unmarked) | 2.88
CC(=O)c1sc(NC(=O)COc2ccc(Br)cc2)nc1C | 2.18
Cc1ccccc1NS(=O)(=O)c1cc(C(=O)NCCC2=CCCCC2)ccc1Cl | -14.3
COc1ccc(C(=O)C[n+]2cccc(C)c2)cc1.[Br-] | 13
COc1ccc(CN2C(=O)CCCc3ccccc32)cc1 | 3.69
CC1CC(C)CN(C(=O)Nc2ccccc2F)C1 (centres unmarked) | 22.9
c1ccc(-n2ncc3c2ncn2nc(CSc4nc5ccccc5s4)nc32)cc1 | 16
COc1ccc(C(=O)CCC(=O)Nc2cccnc2)cc1OC | 17.9
COC(=O)Nc1ccc2c(c1)N(C(=O)CCN1CCN3CCCC3C1)c1ccccc1S2.Cl (centres unmarked) | -31.3
O=C(CCN1C(=O)c2ccccc2C1=O)NC(=S)Nc1ccccc1Cl | -1.16
COC(=O)Cn1c(O)c(N=NC(=O)CNC(=O)COc2cccc(C)c2)c2ccccc21 | -30.1
O=C(CSc1nnc2ccccn12)NNC(=O)c1ccccc1 | 11.9
CCSc1cc(Cl)nc(N)n1 | -4.05
COc1cc(C(=O)NCCCNc2nc3cc(C)cc(C)c3cc2C#N)cc(OC)c1OC | -22.9
O=C(CSCc1ccc(Br)cc1)Nc1ccc(S(=O)(=O)N2CCCCCC2)cc1 | 11.6
S=C(NCCc1ccccn1)Nc1ccccc1 | 17.5
Cc1ccc(N=Cc2nc(-c3ccco3)oc2O)cc1 | -0.27
COc1ccc(OC)c(-c2cc(C(=O)N/N=C(\C)c3cccnc3)c3ccccc3n2)c1 | -65.5
COC(=O)c1ccc2c(=O)[nH]c(CSc3nnc(C(F)(F)F)n3C)nc2c1 | 12.1
COC(=O)c1ccc(N2C(=O)c3cc(N4CCOCC4)c([N+](=O)[O-])cc3C2=O)cc1 | 3.52
CC1CCN(C(=O)Cn2c(=O)c3cccn3c3ccccc32)CC1 | 6.24
Cc1cc(C)cc(NC(=S)NC2CC3CCCC(C2)N3C2CC2)c1 (centres unmarked) | -67.3

SMILES | hERG current change (%, negative = inhibition) at 10uM [%]
COc1ccccc1CNC(=O)c1ccc(Cl)c(NC2=NC3CS(=O)(=O)CC3S2)c1 (centres unmarked) | 4.06
COc1cc(/C=C2/NC(=O)N(CC(=O)Nc3ccc(C)cc3)C2=O)ccc1Oc1ccc([N+](=O)[O-])cn1 | 9.57
COc1cc(OC)cc(C(=O)NNC(=O)c2cc3c(s2)CCCC3)c1 | 40.9
N/C(=N\OCc1ccc([N+](=O)[O-])cc1)c1ccccn1 | -9.21
Cc1nc(N)sc1N=Nc1ccc(F)cc1 | 7.02
COc1ccc(CNC(=O)CSCc2ccccc2Cl)cc1 | -7.18
CN(C)C=O.N#Cc1c(N)nc2c3c(sc(=N)c2c1N)NC(=O)CC3c1ccccc1Cl (centres unmarked) | 24.1
CCCC(C)NC(=O)c1cc(C(=O)OC)cc([N+](=O)[O-])c1 (centres unmarked) | -8.34
Cc1cc(Br)ccc1OCCCCN1CCC(C)CC1.O=C(O)C(=O)O | -67.9
COC(=O)Cc1csc(NC(=O)CSc2nnc3ccccn23)n1 | 19.4
COC(=O)c1ccc(C2=NOC(C)(c3sc(-c4ccccc4)nc3C)C2)cc1 (centres unmarked) | 7.3
CCOc1cc(/C=C/c2nc3cc(C)c(C)cc3s2)ccc1OCC(=O)N1CCOCC1 | 0.659
O=C(NNC(=S)NC(=O)c1ccc(F)cc1)c1cccnc1 | 16
N/C(Cc1ccc(Cl)cc1)=N\OC(=O)c1cccc2ccccc12 | 3.95
Nc1ccccc1Sc1c[nH]c2ccccc12 | 5.21
O=S(=O)(c1ccc(Oc2ccc(Br)cc2)cc1)N1CCOCC1 | -21.6
CC(C)CC(NC(=O)CC12CC3CC(CC(C3)C1)C2)C(=O)NC1=NCCS1 (centres unmarked) | -3.72
Cn1c(=O)c2c(nc(CN3CCOCC3)n2CCN2CCOCC2)n(C)c1=O | 3.09
OCCN(C=NC1=NN(c2cccc(C(F)(F)F)c2)CC1)CCO | 2.6
O=C(CCc1ccccc1)n1nc(-c2ccccc2)nc1NCc1ccco1 | 11.4
